Assay results published in PMC9911399, “Two distinct binding modes provide the RNA-binding protein RbFox with extraordinary sequence specificity”.
Substitutions are numbered along the chain they refer to; changes in the protein carry UniProt numbers. Some of the results follow.

T1: RBFOX1 RRM RbFoxmut (Fox-RRM*) (Homo sapiens, UniProt Q9NWB1 109-208, R118D;E147R;N151S;E152T)
T1 sequence: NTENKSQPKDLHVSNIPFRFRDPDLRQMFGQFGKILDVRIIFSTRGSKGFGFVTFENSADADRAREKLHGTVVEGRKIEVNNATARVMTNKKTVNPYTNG

B1: UGCAUAA (DNA:RNA)
RNA: GGGAGACCGGAAUUCAGAUUGUCCUGCAUAAUUAAAUCCCGUCGUAGCCACCA
DNA 1: CAATCTGAATTCCGGTCTCCC
DNA 2: TGGTGGCTACGACGGGATT
B2: ACGGAAC (DNA:RNA)
RNA: B1 RNA with U25A, G26C, C27G, A28G, U29A, A31C
DNA 1: CAATCTGAATTCCGGTCTCCC
DNA 2: TGGTGGCTACGACGGGATT
B3: UUCGCAC (DNA:RNA)
RNA: B1 RNA with G26U, A28G, U29C, A31C
DNA 1: CAATCTGAATTCCGGTCTCCC
DNA 2: TGGTGGCTACGACGGGATT
B4: CUACUGU (DNA:RNA)
RNA: B1 RNA with U25C, G26U, C27A, A28C, A30G, A31U
DNA 1: CAATCTGAATTCCGGTCTCCC
DNA 2: TGGTGGCTACGACGGGATT
B5: AUGGGAC (DNA:RNA)
RNA: B1 RNA with U25A, G26U, C27G, A28G, U29G, A31C
DNA 1: CAATCTGAATTCCGGTCTCCC
DNA 2: TGGTGGCTACGACGGGATT
B6: GUUAAGC (DNA:RNA)
RNA: B1 RNA with U25G, G26U, C27U, U29A, A30G, A31C
DNA 1: CAATCTGAATTCCGGTCTCCC
DNA 2: TGGTGGCTACGACGGGATT
B7: GUUUUGA (DNA:RNA)
RNA: B1 RNA with U25G, G26U, C27U, A28U, A30G
DNA 1: CAATCTGAATTCCGGTCTCCC
DNA 2: TGGTGGCTACGACGGGATT
B8: UAGCGGC (DNA:RNA)
RNA: B1 RNA with G26A, C27G, A28C, U29G, A30G, A31C
DNA 1: CAATCTGAATTCCGGTCTCCC
DNA 2: TGGTGGCTACGACGGGATT
B9: AGCGACU (DNA:RNA)
RNA: B1 RNA with U25A, A28G, U29A, A30C, A31U
DNA 1: CAATCTGAATTCCGGTCTCCC
DNA 2: TGGTGGCTACGACGGGATT
B10: AGAGUCC (DNA:RNA)
RNA: B1 RNA with U25A, C27A, A28G, A30C, A31C
DNA 1: CAATCTGAATTCCGGTCTCCC
DNA 2: TGGTGGCTACGACGGGATT
B11: UUAACUA (DNA:RNA)
RNA: B1 RNA with G26U, C27A, U29C, A30U
DNA 1: CAATCTGAATTCCGGTCTCCC
DNA 2: TGGTGGCTACGACGGGATT
B12: UUUUGCU (DNA:RNA)
RNA: B1 RNA with G26U, C27U, A28U, U29G, A30C, A31U
DNA 1: CAATCTGAATTCCGGTCTCCC
DNA 2: TGGTGGCTACGACGGGATT
B13: GCGACAA (DNA:RNA)
RNA: B1 RNA with U25G, G26C, C27G, U29C
DNA 1: CAATCTGAATTCCGGTCTCCC
DNA 2: TGGTGGCTACGACGGGATT
B14: AUCCUAC (DNA:RNA)
RNA: B1 RNA with U25A, G26U, A28C, A31C
DNA 1: CAATCTGAATTCCGGTCTCCC
DNA 2: TGGTGGCTACGACGGGATT
B15: UACGAAA (DNA:RNA)
RNA: B1 RNA with G26A, A28G, U29A
DNA 1: CAATCTGAATTCCGGTCTCCC
DNA 2: TGGTGGCTACGACGGGATT
B16: CUAUGGU (DNA:RNA)
RNA: GGGAGACCGGAAUUCAGAUUGUCCCUAUGGUUUAAAUCCCGUCGUAGCCACCA
DNA 1: CAATCTGAATTCCGGTCTCCC
DNA 2: TGGTGGCTACGACGGGATT
B17: UAGUUGC (DNA:RNA)
RNA: B16 RNA with C25U, U26A, A27G, G29U, U31C
DNA 1: CAATCTGAATTCCGGTCTCCC
DNA 2: TGGTGGCTACGACGGGATT
B18: ACAGUAG (DNA:RNA)
RNA: B1 RNA with U25A, G26C, C27A, A28G, A31G
DNA 1: CAATCTGAATTCCGGTCTCCC
DNA 2: TGGTGGCTACGACGGGATT
B19: AACCUUU (DNA:RNA)
RNA: B1 RNA with U25A, G26A, A28C, A30U, A31U
DNA 1: CAATCTGAATTCCGGTCTCCC
DNA 2: TGGTGGCTACGACGGGATT
B20: GAACGUG (DNA:RNA)
RNA: B16 RNA with C25G, U26A, U28C, G30U, U31G
DNA 1: CAATCTGAATTCCGGTCTCCC
DNA 2: TGGTGGCTACGACGGGATT
B21: CGGGCGC (DNA:RNA)
RNA: B16 RNA with U26G, A27G, U28G, G29C, U31C
DNA 1: CAATCTGAATTCCGGTCTCCC
DNA 2: TGGTGGCTACGACGGGATT
B22: CACUCUG (DNA:RNA)
RNA: B16 RNA with U26A, A27C, G29C, G30U, U31G
DNA 1: CAATCTGAATTCCGGTCTCCC
DNA 2: TGGTGGCTACGACGGGATT
B23: UUCUAAA (DNA:RNA)
RNA: B1 RNA with G26U, A28U, U29A
DNA 1: CAATCTGAATTCCGGTCTCCC
DNA 2: TGGTGGCTACGACGGGATT
B24: CAGAAAC (DNA:RNA)
RNA: B1 RNA with U25C, G26A, C27G, U29A, A31C
DNA 1: CAATCTGAATTCCGGTCTCCC
DNA 2: TGGTGGCTACGACGGGATT
B25: GACUAGG (DNA:RNA)
RNA: B16 RNA with C25G, U26A, A27C, G29A, U31G
DNA 1: CAATCTGAATTCCGGTCTCCC
DNA 2: TGGTGGCTACGACGGGATT
B26: UCUGGUC (DNA:RNA)
RNA: B16 RNA with C25U, U26C, A27U, U28G, G30U, U31C
DNA 1: CAATCTGAATTCCGGTCTCCC
DNA 2: TGGTGGCTACGACGGGATT
B27: CUCCGCG (DNA:RNA)
RNA: B16 RNA with A27C, U28C, G30C, U31G
DNA 1: CAATCTGAATTCCGGTCTCCC
DNA 2: TGGTGGCTACGACGGGATT
B28: AACUGCU (DNA:RNA)
RNA: B16 RNA with C25A, U26A, A27C, G30C
DNA 1: CAATCTGAATTCCGGTCTCCC
DNA 2: TGGTGGCTACGACGGGATT
B29: AGACCCA (DNA:RNA)
RNA: B1 RNA with U25A, C27A, A28C, U29C, A30C
DNA 1: CAATCTGAATTCCGGTCTCCC
DNA 2: TGGTGGCTACGACGGGATT
B30: CACUCAC (DNA:RNA)
RNA: B16 RNA with U26A, A27C, G29C, G30A, U31C
DNA 1: CAATCTGAATTCCGGTCTCCC
DNA 2: TGGTGGCTACGACGGGATT
B31: UCUGUGU (DNA:RNA)
RNA: B16 RNA with C25U, U26C, A27U, U28G, G29U
DNA 1: CAATCTGAATTCCGGTCTCCC
DNA 2: TGGTGGCTACGACGGGATT

These binders were tested against T1, RBFOX1 RRM RbFoxmut (Fox-RRM*) (assay: EMSA; HiTS-Eq, 1 nM pool, 10 min; buffer printed only for the single-RNA assays: 10 mM Tris pH 7.5, 150 mM NaCl, 3.4 mM EDTA, 0.001% NP-40, 30 C). Conditions: tags: His6 N-terminal (pET28a); label: 5' 32P.
Procedure, shortened: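 These values rest on relative association constants, computed from read-count changes of each RNA species versus the control reaction and normalised to the cognate motif. Reads came from free RNA recovered by 8% native PAGE after purified RbFox RRM (wild type or mutant) at increasing concentrations was equilibrated for 10 min in 50 µL with 1 nM of a 5′-radiolabelled pool with 7 randomized nucleotides and DNA-annealed flanks.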

Q: B1 was tested. Which binding signal did it give?
A: 0.146 KA relative to UGCAUGU

Q: How did the binding signal turn out when B2 was run?
A: 0.0998 KA relative to UGCAUGU

Q: Which binding signal does the source give for B3 here?
A: 0.105 KA relative to UGCAUGU

Q: B4 was tested. Which binding signal did it give?
A: 0.11 KA relative to UGCAUGU

Q: Which binding signal does the source give for B5 here?
A: 0.0791 KA relative to UGCAUGU

Q: B6 was tested. Which binding signal did it give?
A: 0.0938 KA relative to UGCAUGU

Q: For B7, which binding signal is on record?
A: 0.103 KA relative to UGCAUGU

Q: For B8, which binding signal is on record?
A: 0.086 KA relative to UGCAUGU

Q: B9 was tested. Which binding signal did it give?
A: 0.0943 KA relative to UGCAUGU

Q: Which binding signal does the source give for B10 here?
A: 0.0833 KA relative to UGCAUGU

Q: With B11 as the binder, how does the binding signal read?
A: 0.0873 KA relative to UGCAUGU

Q: How did the binding signal turn out when B12 was run?
A: 0.111 KA relative to UGCAUGU

Q: B13 was tested. Which binding signal did it give?
A: 0.0662 KA relative to UGCAUGU

Q: With B14 as the binder, how does the binding signal read?
A: 0.0748 KA relative to UGCAUGU

Q: How did the binding signal turn out when B15 was run?
A: 0.0838 KA relative to UGCAUGU

Q: B16 was tested. Which binding signal did it give?
A: 0.127 KA relative to UGCAUGU

Q: How did the binding signal turn out when B17 was run?
A: 0.111 KA relative to UGCAUGU

Q: How did the binding signal turn out when B18 was run?
A: 0.119 KA relative to UGCAUGU

Q: B19 was tested. Which binding signal did it give?
A: 0.064 KA relative to UGCAUGU

Q: With B20 as the binder, how does the binding signal read?
A: 0.226 KA relative to UGCAUGU

Q: Which binding signal does the source give for B21 here?
A: 0.102 KA relative to UGCAUGU

Q: How did the binding signal turn out when B22 was run?
A: 0.0573 KA relative to UGCAUGU

Q: With B23 as the binder, how does the binding signal read?
A: 0.0971 KA relative to UGCAUGU

Q: For B24, which binding signal is on record?
A: 0.101 KA relative to UGCAUGU

Q: For B25, which binding signal is on record?
A: 0.0968 KA relative to UGCAUGU

Q: Which binding signal does the source give for B26 here?
A: 0.153 KA relative to UGCAUGU

Q: With B27 as the binder, how does the binding signal read?
A: 0.117 KA relative to UGCAUGU

Q: With B28 as the binder, how does the binding signal read?
A: 0.0766 KA relative to UGCAUGU

Q: How did the binding signal turn out when B29 was run?
A: 0.0527 KA relative to UGCAUGU

Q: B30 was tested. Which binding signal did it give?
A: 0.0799 KA relative to UGCAUGU

Q: For B31, which binding signal is on record?
A: 0.14 KA relative to UGCAUGU
